Data taken from the supplement of paper PMC12217912.
This is one part of the list. The full chains were built here from the parent and the listed change. Inactive controls read about 0.05.

B1: TEV protease; numbered along this chain (parent)
chain: MGESLFKGPRDYNPISSSICHLTNESDGHTTSLYGIGFGPFIITNKHLFRRNNGTLVVQSLHGVFKVKDTTTLQQHLVDGRDMIIIRMPKDFPPFPQKLKFREPQREERICLVTTNFQTKSMSSMVSDTSCTFPSGDGIFWKHWIQTKDGQCGSPLVSTRDGFIVGIHSASNFTNTNNYFTSVPKNFMELLTNQEAQQWVSGWRLNADSVLWGGHKVFMVKPEEPFQPVKEATQL

Variants of: B1
Test: raw area under fraction-flipped curve 0-4 h after induction (AUC4h, not background-subtracted), DNA-recorder readout of cleavage of the substrate (dimensionless); higher = more cleavage of the substrate by the protease variant
Conditions: temperature: 34 °C; time window: 0-4 h after rhamnose induction
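Note: Bxb1 expression induced with 0.2% (w/v) L-rhamnose at OD600 near 0.5, cultures sampled hourly, flipped fraction per protease–substrate barcode pair counted by paired-end Illumina sequencing.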

Row | Variant | area with substrate ENLDFQS | area with substrate ENLEFQS | area with substrate ENLFFQS | area with substrate ENLHFQS | area with substrate ENLKFQS | area with substrate ENLLFQS | area with substrate ENLNFQS | area with substrate ENLPFQS | area with substrate ENLQFQS | area with substrate ENLSFQS
1 | T31Y | 0.0603 | 0.054 | 0.0912 | 0.0518 | 0.0943 | 0.0728 | 0.084 | 0.0586 | 0.0638 | 0.054
2 | Y34M | 0.0618 | 0.0679 | 0.0724 |  |  |  | 0.0593 | 0.0484 | 0.0546 | 0.0557
3 | Y34P | 0.0368 |  |  | 0.0556 | 0.055 |  | 0.0586 |  |  | 0.0612
4 | Y34T | 0.072 |  | 0.065 |  |  |  | 0.0729 | 0.0616 |  | 
5 | G35H | 0.0529 |  | 0.0581 |  | 0.046 |  | 0.0408 |  |  | 0.0378
6 | F38S | 0.0472 |  | 0.0649 | 0.052 | 0.0702 |  | 0.0669 | 0.0725 | 0.072 | 0.0523
7 | R51E | 0.0628 | 0.0753 | 0.0721 | 0.0624 | 0.0731 |  | 0.0714 |  |  | 0.0716
8 | R51V | 0.0568 | 0.071 | 0.1 | 0.062 | 0.0653 | 0.0847 | 0.0285 |  | 0.0605 | 0.0706
9 | G54P | 0.0363 | 0.0504 | 0.052 |  |  |  | 0.0654 |  |  | 
10 | T55R | 0.0634 | 0.0907 | 0.0691 |  | 0.0668 | 0.0874 |  | 0.0635 |  | 
11 | V57P | 0.0632 | 0.033 | 0.0414 | 0.0368 | 0.0475 |  |  | 0.0278 |  | 0.0436
12 | V58I | 0.0507 | 0.0417 | 0.089 | 0.0785 | 0.085 |  |  |  | 0.0592 | 0.0713
13 | V58W | 0.0481 |  |  | 0.051 |  | 0.0396 |  |  |  | 
14 | V58Y | 0.0482 | 0.0493 | 0.0682 |  | 0.0576 |  | 0.0535 | 0.0803 | 0.0502 | 
15 | Q59E | 0.081 | 0.0814 |  | 0.0554 | 0.0572 |  |  | 0.0655 |  | 0.0547
16 | S60I | 0.0654 |  | 0.0723 |  |  |  | 0.069 | 0.0587 | 0.0703 | 0.0759
17 | L61Y | 0.0634 | 0.0737 | 0.0875 | 0.0696 | 0.0586 | 0.0838 | 0.0418 | 0.0576 |  | 0.081
18 | H62E | 0.0613 | 0.0544 | 0.115 | 0.0669 | 0.0908 |  | 0.0737 |  |  | 0.0553
19 | H62T | 0.0616 | 0.0554 | 0.0803 | 0.0455 | 0.0733 | 0.0763 | 0.0628 | 0.0653 | 0.0668 | 0.0595
20 | V67E | 0.0477 |  | 0.0745 | 0.0535 |  |  |  |  |  | 0.0739
21 | D69A | 0.0513 |  | 0.0781 |  | 0.0796 |  |  |  |  | 0.0738

Row | Variant | area with substrate ENLDFQS | area with substrate ENLEFQS | area with substrate ENLFFQS | area with substrate ENLHFQS | area with substrate ENLKFQS | area with substrate ENLLFQS | area with substrate ENLNFQS | area with substrate ENLPFQS | area with substrate ENLQFQS | area with substrate ENLSFQS
22 | T71S | 0.0565 |  |  |  |  |  | 0.0648 |  |  | 0.0731
23 | T72I | 0.0663 | 0.0804 |  | 0.0386 |  |  | 0.0667 |  |  | 0.0717
24 | T72L | 0.056 |  |  |  | 0.093 |  |  |  |  | 0.0322
25 | Q75G | 0.0564 |  | 0.0597 |  | 0.0661 |  | 0.0555 | 0.0533 |  | 0.0641
26 | D79C | 0.0651 |  | 0.0684 | 0.0752 |  |  | 0.0757 |  |  | 
27 | D79Y | 0.0481 | 0.061 | 0.0666 | 0.064 | 0.0616 |  | 0.0681 |  |  | 
28 | D82S | 0.0561 |  | 0.0611 |  |  |  | 0.0476 |  | 0.0734 | 0.0484
29 | I84M | 0.0637 | 0.0629 | 0.086 | 0.0682 | 0.086 | 0.0635 | 0.063 | 0.0673 | 0.0683 | 
30 | I86H | 0.0363 |  | 0.0442 | 0.0462 |  |  | 0.05 | 0.0367 |  | 0.0406
31 | P89D | 0.0345 |  |  |  |  |  | 0.0629 |  |  | 
32 | P89T | 0.0706 |  | 0.0682 | 0.0611 |  |  | 0.06 |  |  | 0.0526
33 | K90T | 0.0604 | 0.0568 | 0.0863 | 0.0637 |  | 0.0833 | 0.068 | 0.0482 |  | 0.0706
34 | D91Y | 0.0581 |  | 0.0719 | 0.0543 | 0.0634 |  |  |  | 0.0684 | 0.0596
35 | P93G | 0.0675 | 0.0584 | 0.0805 | 0.0719 | 0.0743 |  |  |  |  | 0.053
36 | P94L | 0.0685 |  | 0.138 | 0.0787 |  | 0.0611 |  | 0.0628 |  | 0.0833
37 | L99T | 0.0524 | 0.0633 | 0.116 |  | 0.0807 |  |  |  |  | 0.0607
38 | K100P | 0.0556 | 0.066 | 0.0845 | 0.0625 | 0.0767 | 0.0488 | 0.0676 | 0.0704 | 0.0753 | 0.0685
39 | R102F | 0.057 |  | 0.0297 | 0.0435 |  | 0.0471 | 0.0406 | 0.0339 | 0.0354 | 0.0288
40 | E107D | 0.0602 |  | 0.0685 | 0.0776 | 0.0913 | 0.0527 | 0.0553 | 0.0651 | 0.0723 | 0.0633
41 | R109A | 0.065 | 0.0498 |  | 0.0721 | 0.112 | 0.0715 | 0.0671 |  | 0.0499 | 

Same assay, conditions: temperature: 34 °C; time window: 0-4 h after rhamnose induction

Row | Variant | area with substrate ENLWFQS | area with substrate ENLRFQS | area with substrate ENLIFQS | area with substrate ENLGFQS | area with substrate ENLMFQS | area with substrate ENLTFQS | area with substrate ENLVFQS
42 | T31Y | 0.0899 |  |  |  |  |  | 
43 | Y34P |  | 0.0525 |  |  |  |  | 
44 | Y34T | 0.0713 |  | 0.0617 |  |  |  | 
45 | G35H | 0.0539 |  |  |  |  |  | 
46 | F38S | 0.0541 | 0.0629 | 0.0632 | 0.076 | 0.0651 | 0.053 | 
47 | R51E |  | 0.0108 |  | 0.0752 |  | 0.0765 | 0.0869
48 | R51V | 0.0483 | 0.0696 |  | 0.0508 | 0.0688 |  | 
49 | G54P |  | 0.0573 |  |  |  |  | 
50 | T55R |  | 0.0724 |  |  | 0.0766 |  | 0.113
51 | V57P | 0.0438 |  |  |  |  |  | 
52 | V58I |  | 0.0996 |  |  |  |  | 
53 | V58Y | 0.0465 |  | 0.0622 |  |  |  | 
54 | Q59E |  | 0.0373 | 0.085 |  |  |  | 
55 | S60I | 0.0651 | 0.0688 |  | 0.0682 |  |  | 
56 | L61Y |  | 0.0512 |  | 0.0716 |  |  | 
57 | H62E |  |  | 0.0775 | 0.0544 |  |  | 
58 | H62T | 0.0637 |  | 0.0688 |  | 0.0763 |  | 
59 | V67E |  | 0.0804 |  |  |  |  | 

Row | Variant | area with substrate ENLWFQS | area with substrate ENLRFQS | area with substrate ENLIFQS | area with substrate ENLGFQS | area with substrate ENLMFQS | area with substrate ENLTFQS | area with substrate ENLVFQS
60 | T71S | 0.0681 |  |  |  |  |  | 
61 | T72I |  |  | 0.0898 |  |  |  | 0.081
62 | T72L | 0.066 |  |  |  |  | 0.0663 | 
63 | Q75G |  | 0.0707 |  |  |  |  | 0.0838
64 | D79C | 0.0645 |  |  | 0.058 |  |  | 
65 | D79Y |  | 0.0745 |  |  |  |  | 
66 | D82S |  |  | 0.0661 |  |  |  | 
67 | I84M |  | 0.0523 |  |  |  |  | 
68 | P89D | 0.0395 | 0.0747 | 0.0756 |  |  |  | 
69 | P89T |  | 0.0731 | 0.0909 | 0.0605 |  |  | 
70 | K90T | 0.0758 | 0.0719 |  |  |  |  | 
71 | D91Y |  |  |  | 0.0551 | 0.0745 |  | 
72 | P93G |  | 0.0836 | 0.0906 |  |  |  | 
73 | L99T | 0.0722 |  |  |  | 0.0851 |  | 
74 | K100P | 0.0754 |  | 0.0718 | 0.0669 |  |  | 
75 | R102F | 0.0661 |  | 0.0534 |  | 0.0436 |  | 0.0477
76 | E107D | 0.0638 |  | 0.0862 |  |  |  | 
77 | R109A |  |  | 0.119 |  |  |  | 
